According to the supplement of paper PMC12217912:
The list shows a part of the results. Sequences were assembled here from the parent chain. Inactive controls read about 0.05.

B1: TEV protease; numbered along this chain (parent)
chain: MGESLFKGPRDYNPISSSICHLTNESDGHTTSLYGIGFGPFIITNKHLFRRNNGTLVVQSLHGVFKVKDTTTLQQHLVDGRDMIIIRMPKDFPPFPQKLKFREPQREERICLVTTNFQTKSMSSMVSDTSCTFPSGDGIFWKHWIQTKDGQCGSPLVSTRDGFIVGIHSASNFTNTNNYFTSVPKNFMELLTNQEAQQWVSGWRLNADSVLWGGHKVFMVKPEEPFQPVKEATQL

Variants of: B1
Test: raw area under fraction-flipped curve 0-4 h after induction (AUC4h, not background-subtracted), DNA-recorder readout of cleavage of the substrate (dimensionless); higher = more cleavage of the substrate by the protease variant
Conditions: temperature: 34 °C; time window: 0-4 h after rhamnose induction
Description: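 In vivo DNA recorder in E. coli TOP10(DE3) ΔrhaA at 34 °C. Each TEVp single-site mutant (parent TEVp 0) is paired with a single-site variant of the 7-mer TEVs (canonical ENLYFQ|S). The substrate sits between flexible linkers in a Bxb1-sfGFP-TEVs-SsrA fusion, so cleavage stabilises Bxb1 and speeds flipping of a recombination array, read by NGS. The value is the raw area under the fraction-flipped curve over 0-4 h after rhamnose induction (AUC4h), with ≥20 reads per time point. It is not background-subtracted; inactive controls average about 0.047.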
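Note: Bxb1 expression induced with 0.2% (w/v) L-rhamnose at OD600 near 0.5, cultures sampled hourly, flipped fraction per protease–substrate barcode pair counted by paired-end Illumina sequencing.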

| Variant | area with substrate ENLYFAS | area with substrate ENLYFCS | area with substrate ENLYFDS | area with substrate ENLYFES | area with substrate ENLYFFS | area with substrate ENLYFGS | area with substrate ENLYFHS | area with substrate ENLYFIS | area with substrate ENLYFKS | area with substrate ENLYFLS | area with substrate ENLYFMS | area with substrate ENLYFNS | area with substrate ENLYFPS | area with substrate ENLYFRS | area with substrate ENLYFTS | area with substrate ENLYFVS | area with substrate ENLYFWS | area with substrate ENLYFYS | area with substrate ENLYFSS |
| --- | --- | --- | --- | --- | --- | --- | --- | --- | --- | --- | --- | --- | --- | --- | --- | --- | --- | --- | --- |
| H21P | 0.044 | 0.0522 | 0.0472 | 0.0525 | 0.0526 | 0.0573 | 0.0712 | 0.0465 | 0.058 | 0.0456 | 0.034 | 0.0367 | 0.0549 | 0.0518 | 0.0445 | 0.0634 | 0.0461 | 0.0453 |  |
| P40D | 0.0733 | 0.0585 |  | 0.0766 | 0.0668 |  |  | 0.0667 | 0.0289 |  | 0.0447 | 0.0664 | 0.0609 | 0.0492 | 0.0622 | 0.0565 | 0.0458 | 0.0146 | 0.056 |
| P40K | 0.0609 | 0.0572 | 0.0587 | 0.0762 | 0.061 |  | 0.0649 | 0.0477 | 0.0589 | 0.0592 | 0.0581 | 0.0804 | 0.0674 | 0.0623 | 0.02 |  | 0.0714 |  | 0.0573 |
| P40N | 0.0753 |  |  | 0.0547 | 0.0569 | 0.0652 | 0.0805 | 0.0513 | 0.0558 | 0.0667 | 0.0634 | 0.0695 | 0.0678 | 0.062 |  | 0.0571 | 0.0533 |  | 0.0388 |
| P40F | 0.0639 | 0.0465 | 0.0522 | 0.0672 | 0.0832 |  |  | 0.0602 | 0.0617 | 0.0652 | 0.0691 | 0.074 | 0.0591 | 0.0464 | 0.0458 |  | 0.0453 | 0.0944 | 0.0442 |
| P40G | 0.0703 | 0.0596 | 0.0535 | 0.0644 | 0.0615 |  | 0.0619 | 0.0582 | 0.064 | 0.049 | 0.0706 | 0.0657 | 0.0605 | 0.0919 | 0.0734 |  | 0.0541 | 0.0557 | 0.0689 |
| P40T | 0.0431 | 0.0663 |  | 0.0605 | 0.0464 | 0.0451 | 0.0599 | 0.0612 |  | 0.0533 | 0.0623 | 0.0297 | 0.057 | 0.069 | 0.0622 | 0.0628 | 0.0709 | 0.055 |  |
| P40C | 0.0574 | 0.0093 | 0.0597 | 0.068 | 0.0706 | 0.0521 | 0.0468 | 0.0558 | 0.0846 |  | 0.0579 | 0.0713 | 0.0645 | 0.0669 | 0.056 | 0.0607 | 0.0593 | 0.0628 | 0.0478 |
| P40I | 0.0518 | 0.0573 | 0.0437 | 0.0547 | 0.0591 | 0.0395 |  | 0.0529 | 0.0561 |  | 0.0616 | 0.0624 | 0.0565 | 0.0483 | 0.0497 |  |  |  |  |
| P40S | 0.0625 | 0.0602 |  | 0.0743 | 0.0631 |  | 0.0773 | 0.0604 | 0.0749 | 0.0565 | 0.0682 | 0.0559 | 0.0705 | 0.0659 | 0.0615 | 0.0591 | 0.0518 | 0.0558 | 0.0548 |
| P40L | 0.0556 | 0.0458 |  | 0.0234 | 0.0698 |  | 0.0575 | 0.067 |  |  | 0.0594 |  | 0.0582 |  | 0.0544 |  |  | 0.0505 | 0.0677 |
| D27P | 0.0483 | 0.0536 | 0.0557 | 0.0684 |  |  | 0.0698 | 0.054 | 0.0552 | 0.0733 |  | 0.0479 | 0.0626 |  | 0.0652 |  |  | 0.0615 | 0.0662 |
| T31E | 0.0721 | 0.0489 |  | 0.0704 | 0.0745 |  |  | 0.0431 | 0.063 | 0.0703 | 0.056 | 0.0631 | 0.059 | 0.0608 | 0.0592 | 0.0485 | 0.0562 |  | 0.0661 |
| S32M | 0.0783 |  |  | 0.0574 |  | 0.0569 | 0.0563 | 0.047 | 0.0632 |  | 0.0702 | 0.0745 |  | 0.0447 |  |  | 0.0507 | 0.0655 | 0.0596 |
| S32D | 0.0594 | 0.0661 | 0.0484 | 0.0634 | 0.057 | 0.0618 | 0.0236 | 0.0489 | 0.0529 |  | 0.0561 | 0.0303 | 0.0449 | 0.0475 | 0.0556 |  | 0.0576 |  |  |
| S32R | 0.0634 |  | 0.0492 | 0.0651 | 0.0626 |  | 0.0533 | 0.0541 | 0.0446 |  | 0.0561 | 0.0754 | 0.064 | 0.0739 | 0.0554 |  | 0.0432 | 0.063 | 0.0431 |
| S32G | 0.0565 | 0.0456 | 0.0611 | 0.0524 | 0.0668 | 0.0725 |  | 0.0647 | 0.0677 | 0.0473 | 0.0587 | 0.0633 | 0.05 |  | 0.0554 |  | 0.0579 | 0.0607 | 0.0608 |
| S32A | 0.0489 | 0.0601 | 0.0502 | 0.0599 | 0.0688 | 0.0816 | 0.0889 | 0.0537 | 0.0586 |  | 0.0706 | 0.0692 | 0.0604 | 0.0543 | 0.0604 | 0.0742 | 0.0605 |  |  |
| S32W | 0.0597 | 0.0702 | 0.0691 | 0.0792 | 0.0593 | 0.0503 | 0.0631 | 0.0536 |  |  | 0.0618 | 0.0738 | 0.0597 | 0.0546 |  | 0.0262 | 0.053 |  | 0.0605 |
| S32E | 0.0575 | 0.0486 | 0.061 |  | 0.0832 | 0.0581 |  | 0.0594 | 0.0648 | 0.0641 | 0.0663 | 0.0699 | 0.0572 | 0.0563 | 0.059 | 0.0631 |  | 0.0725 | 0.0671 |
| S32L | 0.0543 | 0.0275 | 0.0507 | 0.075 | 0.0806 | 0.0855 | 0.0511 | 0.0543 | 0.0474 | 0.0611 | 0.0765 | 0.0643 | 0.052 | 0.068 | 0.0456 | 0.0463 | 0.0598 | 0.0614 | 0.0675 |
| S32Q | 0.0534 |  |  | 0.0813 | 0.0841 | 0.0389 | 0.0814 | 0.0647 | 0.0428 |  | 0.0629 | 0.065 | 0.0513 |  |  | 0.0463 | 0.0574 |  | 0.0615 |
| L33N | 0.0573 | 0.0645 | 0.0508 | 0.11 | 0.0617 |  | 0.0519 | 0.055 | 0.0482 | 0.0683 | 0.0565 | 0.0648 | 0.053 | 0.0666 | 0.0666 | 0.0548 |  | 0.0723 | 0.0615 |
